Laboratory results as given in a collection of fitness landscapes (doi:10.1016/j.celrep.2020.107928).
The full ranking holds about 81,000 sequences; the median of “one-hybrid fitness for binding parS DNA” is about -0.17, and the highest 2% start at about 0.51. The list shows a part of the results.

B1: Caulobacter ParB omega fusion; a variant is named by its letters at X, in order, B8GW30 (parent)
chain: MESVVVGEPGMSEGRRGLGRGLSALLGEVDAAPAQAPGEQLGGSREAPIEILQRNPDQPRRTFREEDLEDLSNSIREKGVLQPILVRPSPDTAGEYQIVAGERAWRAAQRAGLKTVPIMVRELDDLAVLEIGIIENVQRADLNVLEEALSYKVLMEKFERTQENIAQTIGKSXSHVANXMRLLXLPDEVQSYLVSGELTAXHARAIAAAADPVALAKQIIEGGLSVRETEALARKAPNLSAGKSKGGRPPRVKDTDTQALESDLSSVLGLDVSIDHRGSTGTLTITYATLEQLDDLCNRLTRGI

Variants of: B1
Experiment: one-hybrid fitness for binding parS DNA (scaled: cognate 1, non-cognate 0); higher = stronger binding
Details: with parS DNA site
Summary of the method: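 Selection: bacterial one-hybrid in E. coli USO, HIS3 reporter with the site 19 bp from the promoter, 48 hours at 37°C on M9-minus-histidine plus 0.1 mM IPTG and 5 mM 3-AT. Libraries were Caulobacter ParB with four randomised specificity codons, sequenced on Illumina before and after selection. Fitness is the rescaled log change in variant-to-wild-type read ratio, anchored to the cognate and non-cognate sites.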

Variant	one-hybrid fitness for binding parS DNA
TRRM	≤ 0.2
YAYS	≤ 0.2
SYTS	≤ 0.2
YKAY	≤ 0.2
KNER	≤ 0.2
VRDH	≤ 0.2
MYWR	≤ 0.2
LWVD	≤ 0.2
DNDK	≤ 0.2
SRGN	≤ 0.2
AAAT	≤ 0.2
ASCD	≤ 0.2
LNMQ	≤ 0.2
YAQS	≤ 0.2
ADAM	≤ 0.2
RIQT	0.886
ANMN	≤ 0.2
ATCG	≤ 0.2
QQFF	≤ 0.2
RDVR	≤ 0.2
VCTD	≤ 0.2
ATLE	≤ 0.2
STPE	≤ 0.2
ARKV	≤ 0.2

Variant	one-hybrid fitness for binding parS DNA
RVCG	0.972
STNY	≤ 0.2
EQPT	≤ 0.2
FFIG	≤ 0.2
TILC	≤ 0.2
GPVN	≤ 0.2
RIFW	0.215
ERAA	≤ 0.2
CKKR	≤ 0.2
AAVT	≤ 0.2
REGC	≤ 0.2
RSHW	0.213
HWRV	≤ 0.2
HKLS	≤ 0.2
PNIC	≤ 0.2
RYMT	0.887
EIRR	≤ 0.2
EFTC	≤ 0.2
NSCD	≤ 0.2
MPPL	≤ 0.2
MTSR	≤ 0.2
VKGR	≤ 0.2
LRIG	≤ 0.2
MMDT	≤ 0.2

Variant	one-hybrid fitness for binding parS DNA
GSVP	≤ 0.2
KDAD	≤ 0.2
SFHC	≤ 0.2
SMNL	≤ 0.2
LWYS	≤ 0.2
SPHG	≤ 0.2
LGVR	≤ 0.2
MAYI	≤ 0.2
KPVA	≤ 0.2
AFAS	≤ 0.2
TGRH	≤ 0.2
TSYM	≤ 0.2
VFSC	≤ 0.2
TYTK	≤ 0.2
DTEY	≤ 0.2
MNSS	≤ 0.2
GNHA	≤ 0.2
DHLS	≤ 0.2
QSEE	≤ 0.2
RNSL	≤ 0.2
GDIL	≤ 0.2
QHQN	≤ 0.2
RGQW	≤ 0.2
AYFL	≤ 0.2

Variant	one-hybrid fitness for binding parS DNA
GGRI	≤ 0.2
QKYA	≤ 0.2
LSSY	≤ 0.2
LDVA	≤ 0.2
TWST	≤ 0.2
TKFN	≤ 0.2
RAFP	≤ 0.2
KRDW	≤ 0.2
PPLS	≤ 0.2
TMAS	≤ 0.2
TSKY	≤ 0.2
HCGS	≤ 0.2
SHNE	≤ 0.2
WLLS	≤ 0.2
ANAG	≤ 0.2
QHQW	≤ 0.2
EMKT	≤ 0.2
KLST	≤ 0.2
NDSN	≤ 0.2
QKDS	≤ 0.2
VSNM	≤ 0.2
EYHK	≤ 0.2
FHTW	≤ 0.2
AQAM	≤ 0.2

Variant	one-hybrid fitness for binding parS DNA
DWMG	≤ 0.2
PIMG	≤ 0.2
RAGV	≤ 0.2
QYTN	≤ 0.2
PFDP	≤ 0.2
DRAT	≤ 0.2
GIAW	≤ 0.2
EALF	≤ 0.2
GQIG	≤ 0.2
HHWS	≤ 0.2
QKHI	≤ 0.2
RQNW	0.271
WKND	≤ 0.2
NLAY	≤ 0.2
LGTL	≤ 0.2
SPAI	≤ 0.2
SMPN	≤ 0.2
MPWI	≤ 0.2
KVST	≤ 0.2
GVTR	≤ 0.2
QLCY	≤ 0.2
QIPQ	≤ 0.2
VCWT	≤ 0.2
HNWR	≤ 0.2

Variant	one-hybrid fitness for binding parS DNA
AIVG	≤ 0.2
MALE	≤ 0.2
PPEY	≤ 0.2
SLVN	≤ 0.2
QEMR	≤ 0.2
VEVT	≤ 0.2
NPTK	≤ 0.2
RNKM	0.363
PDIS	≤ 0.2
RWVG	0.584
YPRL	≤ 0.2
LNKG	≤ 0.2
MKIS	≤ 0.2
SEDT	≤ 0.2
DVLW	≤ 0.2
QRKD	≤ 0.2
VHWV	≤ 0.2
PMHV	≤ 0.2
PAYS	≤ 0.2
DASC	≤ 0.2
HVRT	≤ 0.2
LTGE	≤ 0.2
REGN	≤ 0.2
YICC	≤ 0.2

Variant	one-hybrid fitness for binding parS DNA
DPNL	≤ 0.2
KSYN	≤ 0.2
DNEF	≤ 0.2
IIHS	≤ 0.2
RWNL	≤ 0.2
GPVQ	≤ 0.2
YNHY	≤ 0.2
LSLV	≤ 0.2
APAC	≤ 0.2
VTWS	≤ 0.2
VSYL	≤ 0.2
EATR	≤ 0.2
TQVS	≤ 0.2
TVLH	≤ 0.2
NAGR	≤ 0.2
AESW	≤ 0.2
PPRI	≤ 0.2
HVVT	≤ 0.2
HTGT	≤ 0.2
MELC	≤ 0.2
KKST	≤ 0.2
KIIR	≤ 0.2
SAIE	≤ 0.2
PAIP	≤ 0.2

Variant	one-hybrid fitness for binding parS DNA
PIHW	≤ 0.2
RKPV	≤ 0.2
CETT	≤ 0.2
LYIR	≤ 0.2
WNRS	≤ 0.2
NPMV	≤ 0.2
QQAS	≤ 0.2
AGYW	≤ 0.2
RGLV	≤ 0.2
SNDL	≤ 0.2
TSTN	≤ 0.2
VANP	≤ 0.2
QTKH	≤ 0.2
AVSI	≤ 0.2
LLLF	≤ 0.2
FFPC	≤ 0.2
LYPY	≤ 0.2
HECR	≤ 0.2
ALRF	≤ 0.2
RKAC	0.878
LLQH	≤ 0.2
GYIT	≤ 0.2
LATC	≤ 0.2
IEHV	≤ 0.2

Variant	one-hybrid fitness for binding parS DNA
QDMR	≤ 0.2
HTNL	≤ 0.2
KRVE	≤ 0.2
PTIL	≤ 0.2
PYNT	≤ 0.2
EGCR	≤ 0.2
VLVK	≤ 0.2
KGVG	≤ 0.2
HQNR	≤ 0.2
INAV	≤ 0.2
SRAK	≤ 0.2
CEWR	≤ 0.2
ASLL	≤ 0.2
RRQL	≤ 0.2
VWYG	≤ 0.2
YSAK	≤ 0.2
AIQS	≤ 0.2
KFMF	≤ 0.2
CKRY	≤ 0.2
MEVA	≤ 0.2
PRTV	≤ 0.2
LNTY	≤ 0.2
SLQT	≤ 0.2
KNTD	≤ 0.2

Variant	one-hybrid fitness for binding parS DNA
IVKY	≤ 0.2
GRAP	≤ 0.2
AGAV	≤ 0.2
VYWR	≤ 0.2
RQTT	0.929
ANNV	≤ 0.2
VERG	≤ 0.2
QNVE	≤ 0.2
VQLG	≤ 0.2
LQTC	≤ 0.2
VKNE	≤ 0.2
NADF	≤ 0.2
AFPG	≤ 0.2
GDDG	≤ 0.2
LERR	≤ 0.2
THGS	≤ 0.2
PFNG	≤ 0.2
IRNT	≤ 0.2
PFRF	≤ 0.2
RQHM	0.325
TSVD	≤ 0.2
YHAT	≤ 0.2
PQRV	≤ 0.2
SQPV	≤ 0.2

Variant	one-hybrid fitness for binding parS DNA
QQYN	≤ 0.2
HTAP	≤ 0.2
RIGC	0.955
TDLG	≤ 0.2
LMYT	≤ 0.2
YHLP	≤ 0.2
VKHI	≤ 0.2
TAKM	≤ 0.2
VHVA	≤ 0.2
DRRT	≤ 0.2
EPRM	≤ 0.2
YRCS	0.245
TDTR	≤ 0.2
DESL	≤ 0.2
RWTK	≤ 0.2
DEPV	≤ 0.2
MRKV	≤ 0.2
NGKK	≤ 0.2
QFTG	≤ 0.2
ESIS	≤ 0.2
IRNV	≤ 0.2
YSQQ	≤ 0.2
GAVI	≤ 0.2
CVPI	≤ 0.2

Variant	one-hybrid fitness for binding parS DNA
KSLN	≤ 0.2
TPIC	≤ 0.2
LQRL	≤ 0.2
LQHG	≤ 0.2
NDHG	≤ 0.2
RLSF	0.246
STCT	≤ 0.2
RYAF	0.208
CGSK	≤ 0.2
DGKS	≤ 0.2
VEVS	≤ 0.2
TLQL	≤ 0.2
MQNW	≤ 0.2
QQDG	≤ 0.2
NFVA	≤ 0.2
LTSC	≤ 0.2
KYSS	≤ 0.2
SAKC	≤ 0.2
RGFT	0.455
PNKW	≤ 0.2
SVYS	≤ 0.2
LEMF	≤ 0.2
ASFL	≤ 0.2
LDDD	≤ 0.2

Variant	one-hybrid fitness for binding parS DNA
TPPY	≤ 0.2
GYPY	≤ 0.2
VNPV	≤ 0.2
IMST	≤ 0.2
FSFV	≤ 0.2
VLNT	≤ 0.2
MGLW	≤ 0.2
GLQD	≤ 0.2
GAKV	≤ 0.2
TWIR	≤ 0.2
KCLV	≤ 0.2
RSMK	≤ 0.2
DGHC	≤ 0.2
SRDT	≤ 0.2
QGFT	≤ 0.2
GFNS	≤ 0.2
RYDE	≤ 0.2
AVYS	≤ 0.2
